The values below come from ChEMBL document CHEMBL5052851, “Mettl3 modulators” (2021).

Test [1] deals with T1, N6-adenosine-methyltransferase catalytic subunit (Homo sapiens, UniProt Q86U44). Nature of the test: Inhibition of METTL3 (unknown origin) using UCUGGACUAAA-biotin and 3H-SAM as substrates preincubated for 5 mins followed by substrate addition incubated for 30 mins by TopCount scintillation counting method.
In the next test the test system is MOLM-13. The test can be described thus: Antiproliferative activity against human MOLM-13 cells after 96 hrs by Cell Titer-Glo assay. The class given is functional, cell-based. The following applies: MOLM-13, 96 h. (In ATP-based viability assays light output follows the ATP content of the culture.)
For test [2], the target named is T1, N6-adenosine-methyltransferase catalytic subunit. The test can be described thus: Inhibition of METTL3-mediated m6A methylation in human MOLM-13 cells assessed as reduction in mRNA level measured after 24 hrs by LC-MS/MS analysis. The class given is cell-based.
Test [3] is described as follows: Inhibition of METTL16 (unknown origin) using CGAUACAGAGAAGAUUAGCAUACGCAAAUUCGUGAAGCG-biotin and SAM as substrates preincubated for 5 mins followed by substrate addition incubated for 220 mins by TopCount scintillation counting method. The arrangement: species or system Homo sapiens.

T1 sequence (Q86U44 whole entry): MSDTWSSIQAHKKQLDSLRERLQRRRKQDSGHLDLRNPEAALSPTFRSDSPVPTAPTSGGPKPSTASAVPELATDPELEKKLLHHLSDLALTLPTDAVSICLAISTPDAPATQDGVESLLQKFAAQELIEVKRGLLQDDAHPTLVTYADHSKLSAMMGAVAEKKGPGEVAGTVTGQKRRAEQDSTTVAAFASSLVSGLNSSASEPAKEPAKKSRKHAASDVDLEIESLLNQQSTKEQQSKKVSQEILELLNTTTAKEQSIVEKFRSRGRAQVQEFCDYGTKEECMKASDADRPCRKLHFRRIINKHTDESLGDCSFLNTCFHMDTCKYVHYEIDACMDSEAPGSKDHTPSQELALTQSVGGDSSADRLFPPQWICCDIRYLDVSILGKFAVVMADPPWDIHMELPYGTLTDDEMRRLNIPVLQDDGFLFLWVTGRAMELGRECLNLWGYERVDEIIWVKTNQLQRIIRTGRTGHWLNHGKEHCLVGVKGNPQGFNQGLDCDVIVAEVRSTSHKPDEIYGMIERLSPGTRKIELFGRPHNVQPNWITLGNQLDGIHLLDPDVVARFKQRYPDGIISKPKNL

By IC50 is commonly meant the point on the concentration scale where inhibition reaches its midpoint. In the case of `CCc1cc(NCCN(C)C)c2c(F)cc(OCc3cncc(-n4cc(-c5ccn(C)n5)c5c(N)ncnc54)c3)cc2n1`, the 50% inhibitory concentration (IC50) in test [1] is below 10 nM; in the test with MOLM-13, 1000 nM; in test [2] it was at least 10000 nM.

With `CCc1cc(N(C)C)c2ccc(OCc3cncc(-n4cc(-c5ccn(C)n5)c5c(N)ncnc54)c3)cc2n1`, the half-inhibitory concentration (IC50) in test [1] was below 10 nM; in the test on MOLM-13, below 1000 nM; in test [2], at least 10000 nM.

Regarding `CCc1cc(N2CCC(F)(F)CC2)c2ccc(OCc3cncc(-n4ccc5c(N)ncnc54)c3)cc2n1`, the IC50 in test [3] is at least 1000 nM; in test [1] it was below 10 nM; with MOLM-13, 1000 nM.

As to `CCc1cc(NC)c2ccc(CCc3cncc(-n4cc(-c5ccn(C)n5)c5c(N)ncnc54)c3)cc2n1`, the IC50 in test [3] is at least 1000 nM; in test [1], below 10 nM; with MOLM-13 it was below 1000 nM.

With `CNc1ccc2ccc(CCc3cncc(-n4cc(C5CCCC5)c5c(N)ncnc54)n3)cc2n1`, the IC50 was at least 1000 nM in test [3], below 10 nM in test [1] and 1000 nM in test [2].

Turning to `CCc1cc(N)c2ccc(OCc3cncc(-n4cc(Cl)c5c(N)ncnc54)c3)cc2n1`, the values for the half-maximal inhibitory concentration (IC50) in test [3], in test [1] and in test [2] were at least 1000 nM, below 10 nM and at least 10000 nM, respectively.

For `CCc1cc(N(C)CCOC)c2ccc(CCc3cncc(-n4cc(-c5ccn(C)n5)c5c(N)ncnc54)c3)cc2n1`, the results for the half-maximal inhibitory concentration (IC50) (in test [3]; with MOLM-13) were at least 1000 nM and below 1000 nM, respectively.

As for `CCNc1ccc2ccc(CCc3cncc(-n4cc(-c5ccn(C)n5)c5c(N)ncnc54)c3)cc2n1`, the IC50 in test [1] is below 10 nM; in the test with MOLM-13, below 1000 nM; in test [2] it was below 1000 nM.

Turning to `CNc1ccc2ccc(OCc3cncc(-n4cc(C(C)C5CC5)c5c(N)ncnc54)c3)cc2n1` (stereo not drawn), the IC50 is at least 1000 nM in test [3], below 10 nM in test [1] and 1000 nM in the test on MOLM-13.

Take `Nc1ncnc2c1c([C@@H]1CCCO1)cn2-c1cncc(COc2ccc3ccc(N4CCC4)nc3c2)c1`: the IC50 was below 10 nM in test [1], below 1000 nM with MOLM-13 and below 1000 nM in test [2].

In the case of `CNc1ccc2ccc(OCc3cncc(-n4cc(-c5ccc(CNCCS(C)(=O)=O)o5)c5c(N)ncnc54)c3)cc2n1`, the results for the IC50 (in test [1]; with MOLM-13; in test [2]) were below 10 nM, 1000 nM and 1000 nM, respectively.

`CNc1ccc2ccc(OCc3cncc(-n4cc(-c5ncco5)c5c(N)ncnc54)c3)cc2n1`: the 50% inhibitory concentration (IC50) was at least 1000 nM in test [3], below 10 nM in test [1] and at least 10000 nM in the test with MOLM-13.

With `CCc1cc(NCCOC)c2c(F)cc(OCc3cncc(-n4cc(COC)c5c(N)ncnc54)c3)cc2n1`, the IC50 in test [1] was below 10 nM; with MOLM-13, below 1000 nM.

With `CCc1cc(N2CCCC2)c2ccc(OCc3cncc(-n4ccc5c(N)ncnc54)c3)cc2n1`, the values for the IC50 (in test [1]; with MOLM-13) were below 10 nM and below 1000 nM, respectively.

Consider `Cn1ccc(-c2cn(-c3cncc(CCc4ccc5ccc(N6CCC6)nc5c4)c3)c3ncnc(N)c23)n1`, for which the 50% inhibitory concentration (IC50) in test [1] was below 10 nM; in the test on MOLM-13 it was below 1000 nM; in test [2], below 1000 nM.

Regarding `CNc1ccc2ccc(CCc3cncc(-n4cc(F)c5c(N)ncnc54)c3)cc2n1`, the 50% inhibitory concentration (IC50) in test [3] is at least 1000 nM; in test [1], below 10 nM; in the test on MOLM-13, 1000 nM.

Take `CCc1cc(OC)c2ccc(OCc3cncc(-n4cc([C@@H]5CCCO5)c5c(N)ncnc54)c3)cc2n1`: the IC50 was below 10 nM in test [1] and 1000 nM with MOLM-13.

With `Cc1cc(N)c2ccc(OCc3cncc(-n4ccc5c(N)ncnc54)c3)cc2n1`, the half-inhibitory concentration (IC50) in test [3] was at least 1000 nM; with MOLM-13, at least 10000 nM.

Regarding `CCc1cc(N(C)C2CC2)c2ccc(OCc3cncc(-n4cc(-c5ccn(C)n5)c5c(N)ncnc54)c3)cc2n1`, the figures for the half-maximal inhibitory concentration (IC50) (in test [1]; in the test with MOLM-13; in test [2]) were below 10 nM, below 1000 nM and 1000 nM, respectively.

As to `COCc1cn(-c2cncc(COc3ccc4ccc(N5CCC5)nc4c3)c2)c2ncnc(N)c12`, the IC50 is below 10 nM in test [1] and 1000 nM in the test on MOLM-13.

For `CC(C)c1cc(N2CCC2)c2ccc(OCc3cncc(-n4ccc5c(N)ncnc54)c3)cc2n1`, the IC50 in test [1] was below 10 nM; in the test on MOLM-13, below 1000 nM.

Turning to `Cn1ccc(-c2cn(-c3cncc(CCc4ccc5cc(Br)c(N)nc5c4)c3)c3ncnc(N)c23)n1`, the IC50 in test [3] is at least 1000 nM; in test [1], at least 1000 nM; in the test with MOLM-13, 1000 nM.

Regarding `CNc1ccc2ccc(OCc3cncc(-n4cc(Cl)c5c(N)ncnc54)n3)cc2n1`, the IC50 in test [1] was below 10 nM; in test [2], 1000 nM.

Turning to `CNc1ccc2ccc(OCc3cncc(-n4cc(C5CCCO5)c5c(N)ncnc54)c3)cc2n1` (stereo not drawn), the half-inhibitory concentration (IC50) in test [1] is below 10 nM; in the test on MOLM-13 it was below 1000 nM.

`CCc1cc(N(C)CC2CC2)c2ccc(OCc3cncc(-n4cc(-c5ccn(C)n5)c5c(N)ncnc54)c3)cc2n1`: the figures for the half-maximal inhibitory concentration (IC50) (in test [1]; with MOLM-13; in test [2]) were below 10 nM, below 1000 nM and 1000 nM, respectively.

On to `Nc1nc2cc(OCc3cncc(-n4ccc5c(N)ncnc54)c3)ccc2cc1Br`, for which the results for the IC50 (in test [3]; in test [1]; with MOLM-13) were at least 1000 nM, at least 1000 nM and at least 10000 nM, respectively.

As for `CCc1cc(N2CCOCC2)c2ncc(OCc3cncc(-n4cc(-c5ccn(C)n5)c5c(N)ncnc54)c3)cc2n1`, the figures for the IC50 (in test [1]; in the test on MOLM-13) were below 10 nM and below 1000 nM, respectively.

Take `CC(C)c1cc(N2CCNCC2)c2ccc(OCc3cncc(-n4ccc5c(N)ncnc54)c3)cc2n1`: the IC50 was below 10 nM in test [1], below 1000 nM in the test on MOLM-13 and 1000 nM in test [2].

As for `CCc1cc(NCCCN(C)C)c2ccc(CCc3cncc(-n4ccc5c(N)ncnc54)c3)cc2n1`, the IC50 in test [3] is at least 1000 nM; in test [1], below 10 nM; with MOLM-13, at least 10000 nM.

As for `CCc1cc(NCCOC)c2ncc(CCc3cncc(-n4cc(-c5ccn(C)n5)c5c(N)ncnc54)c3)cc2n1`, the IC50 is below 10 nM in test [1] and below 1000 nM with MOLM-13.

With `CCNc1ccc2ccc(OCc3cccc(-n4cc(Cl)c5c(N)ncnc54)c3)cc2n1`, the results for the IC50 (in test [3]; in the test on MOLM-13) were at least 1000 nM and 1000 nM, respectively.

With `Cn1ccc(-c2cn(-c3cncc(CCc4ccc5ccc(N)nc5c4)c3)c3ncnc(N)c23)n1`, the IC50 in test [3] was at least 1000 nM; in test [1], below 10 nM; with MOLM-13, 1000 nM.

In the case of `CCNc1ccc2ccc(OCc3cncc(-n4cc([C@H]5CCCO5)c5c(N)ncnc54)c3)cc2n1`, the concentration for half-maximal inhibition (IC50) in test [1] was below 10 nM; in the test with MOLM-13, below 1000 nM.

For `CCc1cc(NCCOC)c2ncc(OCc3cncc(-n4cc(-c5ccn(C)n5)c5c(N)ncnc54)c3)cc2n1`, the 50% inhibitory concentration (IC50) was below 10 nM in test [1], below 1000 nM in the test on MOLM-13 and 1000 nM in test [2].

As for `CCc1cc(N2CCOCC2)c2ccc(OCc3cncc(-n4ccc5c(N)ncnc54)c3)cc2n1`, the IC50 in test [1] was below 10 nM; in the test with MOLM-13, 1000 nM; in test [2] it was 1000 nM.

Consider `Cn1ccc(-c2cn(-c3cncc(COc4ccc5ccc(N6CC(O)C6)nc5c4)c3)c3ncnc(N)c23)n1`, for which the figures for the IC50 (in test [1]; in the test with MOLM-13) were below 10 nM and 1000 nM, respectively.

On to `COCCn1ccc(-c2cn(-c3cncc(COc4ccc5ccc(N6CCC6)nc5c4)c3)c3ncnc(N)c23)n1`, for which the IC50 was below 10 nM in test [1], below 1000 nM in the test with MOLM-13 and below 1000 nM in test [2].

In the case of `CCCc1cc(N)c2ccc(CCc3cncc(-n4cc(-c5ccn(C)n5)c5c(N)ncnc54)c3)cc2n1`, the IC50 was below 10 nM in test [1] and below 1000 nM with MOLM-13.

Consider `CNc1cc(CCCN2CCOCC2)c2ccc(OCc3cncc(-n4ccc5c(N)ncnc54)c3)cc2n1`, for which the values for the IC50 (in test [1]; in the test on MOLM-13; in test [2]) were below 10 nM, 1000 nM and at least 10000 nM, respectively.

For `CN(C)CCNc1cc(C2CCC2)nc2cc(OCc3cncc(-n4ccc5c(N)ncnc54)c3)ccc12`, the IC50 in test [1] is below 10 nM; in the test with MOLM-13 it was below 1000 nM; in test [2], 1000 nM.

For `CCc1cc(N(C)C2CC2)c2ccc(OCc3cncc(-n4cc([C@@H]5CCCO5)c5c(N)ncnc54)c3)cc2n1`, the 50% inhibitory concentration (IC50) was below 10 nM in test [1] and below 1000 nM with MOLM-13.

Consider `CCc1cc(NCCCN(C)C)c2ccc(OCc3cncc(-n4cc(-c5ccn(C)n5)c5c(N)ncnc54)c3)cc2n1`, for which the 50% inhibitory concentration (IC50) in test [1] is below 10 nM; in the test on MOLM-13 it was below 1000 nM.

For the compound `CC(=O)c1cn(-c2cncc(COc3ccc4ccc(N5CCC5)nc4c3)c2)c2ncnc(N)c12`, the values for the IC50 (in test [1]; in the test with MOLM-13) were below 10 nM and at least 10000 nM, respectively.

As for `Cn1ccc(-c2cn(-c3cncc(COc4ccc5ccc(N6CC(F)C6)nc5c4)c3)c3ncnc(N)c23)n1`, the half-inhibitory concentration (IC50) is below 10 nM in test [1] and below 1000 nM in the test on MOLM-13.

As to `CCc1cc(NCCOC)c2ccc(OCc3cncc(-n4cc([C@@H]5CCCO5)c5c(N)ncnc54)c3)cc2n1`, the IC50 in test [1] is below 10 nM; with MOLM-13, below 1000 nM.

Take `CCc1cc(NCCN(C)C)c2c(F)cc(CCc3cncc(-n4cc(-c5ccn(C)n5)c5c(N)ncnc54)c3)cc2n1`: the half-maximal inhibitory concentration (IC50) in test [1] was below 10 nM; in the test on MOLM-13, below 1000 nM; in test [2] it was 1000 nM.

In the case of `CNc1ccc2ccc(OCc3cc(Br)cc(-n4cc(Cl)c5c(N)ncnc54)c3)cc2n1`, the results for the IC50 (in test [3]; with MOLM-13) were at least 1000 nM and 1000 nM, respectively.

Consider `CC(C)c1nc(NCCN(C)C)c2ccc(OCc3cncc(-n4ccc5c(N)ncnc54)c3)cc2n1`, for which the IC50 in test [1] was below 10 nM; in test [2], 1000 nM.

As to `CCc1cc(NC)c2ccc(OCc3cncc(-n4cc(-c5ccn(CCOC)n5)c5c(N)ncnc54)c3)cc2n1`, the IC50 in test [1] was below 10 nM; in the test on MOLM-13, below 1000 nM.

As for `Cc1nc(-c2cn(-c3cncc(COc4ccc5ccc(N6CCC6)nc5c4)c3)c3ncnc(N)c23)co1`, the IC50 was below 10 nM in test [1] and 1000 nM with MOLM-13.

On to `CCc1cc(NCCOC)c2c(F)cc(OCc3cncc(-n4cc(-c5ccn(C)n5)c5c(N)ncnc54)c3)cc2n1`, for which the IC50 in test [1] was below 10 nM; in the test with MOLM-13, below 1000 nM.
